In the supplement of paper PMC3334620:
Over roughly 33,000 sequences, “E-score (-0.5 to 0.5)” has its median near -0.043; the highest 2% begin near 0.37. This is one part of the list.

target: T1, Upc2 (UniProt Q12151); assay: PBM E-score (8-mer binding enrichment) (E-score (-0.5 to 0.5)); higher = stronger / more preferred TF binding; most listed sequences are background and not binding sites; conditions: protein concentration: 200 nM; construct: GST-full length
T1 sequence: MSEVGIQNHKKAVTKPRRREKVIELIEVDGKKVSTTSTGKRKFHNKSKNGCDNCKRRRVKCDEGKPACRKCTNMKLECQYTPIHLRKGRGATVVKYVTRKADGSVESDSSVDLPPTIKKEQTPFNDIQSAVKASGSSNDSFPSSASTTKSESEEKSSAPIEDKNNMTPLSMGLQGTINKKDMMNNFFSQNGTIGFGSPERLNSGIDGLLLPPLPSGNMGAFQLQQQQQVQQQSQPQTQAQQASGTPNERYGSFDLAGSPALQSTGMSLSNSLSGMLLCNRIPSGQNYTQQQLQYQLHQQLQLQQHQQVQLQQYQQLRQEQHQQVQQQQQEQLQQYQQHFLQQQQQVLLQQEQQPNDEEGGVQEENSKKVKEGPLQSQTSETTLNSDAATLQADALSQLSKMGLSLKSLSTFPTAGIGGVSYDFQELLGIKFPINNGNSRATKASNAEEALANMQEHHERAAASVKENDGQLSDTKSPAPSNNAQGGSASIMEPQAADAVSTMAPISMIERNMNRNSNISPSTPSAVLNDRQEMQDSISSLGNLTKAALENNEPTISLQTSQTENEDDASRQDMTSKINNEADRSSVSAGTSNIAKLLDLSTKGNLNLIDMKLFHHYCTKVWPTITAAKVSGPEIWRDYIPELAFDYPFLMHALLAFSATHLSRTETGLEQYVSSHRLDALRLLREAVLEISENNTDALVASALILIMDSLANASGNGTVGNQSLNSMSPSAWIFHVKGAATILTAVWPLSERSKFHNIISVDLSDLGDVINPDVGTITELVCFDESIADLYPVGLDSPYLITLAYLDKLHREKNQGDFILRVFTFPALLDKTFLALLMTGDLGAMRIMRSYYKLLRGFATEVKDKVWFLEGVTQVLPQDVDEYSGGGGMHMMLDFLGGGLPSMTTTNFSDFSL
Procedure, shortened: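 Yeast transcription factors, full-length or as DNA-binding domains, were expressed with a GST tag using PURExpress in vitro transcription/translation. At about 100-200 nM they were applied to universal all-10-mer Agilent arrays, double-stranded by primer extension on fresh or once-stripped slides. Fluorescent anti-GST detected bound protein, and masliner normalised the scans. E-scores for ungapped eight-base words, pooled with reverse complements, came from the Universal PBM Analysis Suite.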

Row | Sequence | PBM E-score
1 | ACTAGAGG | -0.234
2 | GGGAGCGA | 0.195
3 | GATCTAAA | 0.0875
4 | ATCACTCA | -0.0539
5 | CGCACACC | 0.149
6 | ACGGCTTA | 0.0625
7 | AGACACGA | 0.11
8 | ATCTACCG | 0.0255
9 | TGACTGAA | -0.167
10 | AACTAGAG | -0.226
11 | GGGATGCA | -0.0955
12 | ACAATCTA | 0.0317
13 | CATCTGGG | -0.133
14 | GCTTAGCC | -0.0687
15 | CAACTTCG | 0.0522
16 | CTTCCTGA | -0.0594
17 | AGCGTCCA | -0.181
18 | AATATTTG | 0.15
19 | CGCGGTGC | -0.14
20 | AGGGGAGG | -0.135
21 | ATCCACAT | 0.00066
22 | AAACAGTG | 0.0714
23 | CAAGCTAA | -0.081
24 | ACGCCAGA | 0.0811
25 | AGACTCCG | -0.196

Row | Sequence | PBM E-score
26 | CGATTGAC | 0.03
27 | ATACGGGA | 0.382
28 | ACCCGACA | 0.0838
29 | CCTATATA | 0.18
30 | CGTAAAGA | 0.412
31 | CAGACCCA | -0.0945
32 | CTGCTAGA | -0.159
33 | GATTGCGA | 0.0592
34 | CATATCAG | -0.165
35 | CGGTTGAC | 0.0663
36 | AGATTCTG | -0.134
37 | CATACATC | -0.0547
38 | GGGTACCC | -0.112
39 | CAAAGCCA | -0.0387
40 | AATACTGG | -0.0741
41 | CCCAGCAC | -0.227
42 | GCGTCCTA | -0.181
43 | CCCGGCCG | -0.157
44 | AACAGATA | -0.0868
45 | ACCTATAA | 0.141
46 | CTGCTGTC | -0.0411
47 | ATCGAGTC | -0.0489
48 | ACCAGGCC | -0.0273
49 | TAAATCGA | 0.0845
50 | CAGTGGGG | -0.272

Row | Sequence | PBM E-score
51 | GAGGAAAC | -0.0276
52 | CCCGCTAA | -0.0534
53 | GATGCCTA | -0.167
54 | GCGGTGCC | -0.202
55 | GACTTACA | 0.164
56 | CACTAGTA | -0.0329
57 | AACCGTCC | -0.191
58 | ATTAAGAG | -0.0833
59 | ACCAGCCC | -0.186
60 | GATGCCAC | -0.21
61 | AGTTTCGC | 0.0981
62 | ACCTTAAC | 0.15
63 | GGTGTATA | -0.0671
64 | CATGTAGA | -0.165
65 | GCTGGATA | -0.131
66 | ATCTGCAC | -0.124
67 | GACTTTCC | -0.229
68 | AGACGATG | 0.0313
69 | CACCACAC | -0.239
70 | CGTGACAG | 0.084
71 | ATCCGACA | 0.158
72 | AGCGCGGG | -0.0277
73 | CCGAAGCA | 0.0563
74 | CAACATTG | 0.0126
75 | AGGTAAGA | 0.101

Row | Sequence | PBM E-score
76 | CTAGCGAG | -0.011
77 | ATCAACAT | -0.0449
78 | CCAGTCCC | -0.235
79 | TGCCTCCA | -0.221
80 | CAGCGTGC | -0.212
81 | ATTTTCAC | 0.0208
82 | AACCAATG | -0.166
83 | AATTATAG | 0.0092
84 | GCGTATGA | 0.305
85 | AAGCCAAC | 0.098
86 | ATCAGTAC | 0.104
87 | CAGACCCG | -0.0414
88 | ACGGGCAA | 0.16
89 | CTACTATC | 0.00083
90 | CAATTCAG | -0.00105
91 | GTCTAAAC | 0.257
92 | TTCGTCAA | 0.0787
93 | AAGAACGT | 0.108
94 | CCCCATGC | -0.29
95 | TTCATCAA | -0.181
96 | TATTCTAA | 0.0995
97 | TAGCATGA | -0.243
98 | CGATCGAC | 0.0174
99 | ATTCAATA | 0.0442
100 | ACAGGAAT | -0.131

Row | Sequence | PBM E-score
101 | GCGGCTAA | -0.0166
102 | GACCAGGA | -0.0205
103 | TGGGTGAA | 0.0898
104 | CACCTGAG | -0.25
105 | CGAATATC | 0.0843
106 | AGGATAAG | -0.175
107 | TCGATAGA | -0.00116
108 | TCGTTAAA | 0.466
109 | CACATCTC | -0.0889
110 | TCATCAAA | -0.111
111 | ACCCATCC | -0.082
112 | GAGCAATA | -0.00989
113 | AGCACTTC | -0.082
114 | AAGTGGGG | -0.11
115 | CATTAGTA | -0.0153
116 | GAATGACC | -0.12
117 | ACGCCTAC | -0.0515
118 | AATAGTTA | -0.00543
119 | CCTTCCGC | -0.243
120 | CCTCCAAG | -0.292
121 | ACCGTTAT | -0.0125
122 | ACTCATCA | -0.128
123 | AATCGATA | 0.147
124 | AGGCACCA | 0.0711
125 | AGAGCCCG | -0.0194

Row | Sequence | PBM E-score
126 | ATTAACAA | 0.177
127 | GAACACCA | -0.16
128 | TAAACAGA | -0.078
129 | ATCACCTA | -0.0444
130 | CTCAAGCA | -0.295
131 | AATCATGC | -0.304
132 | CATTCTGC | -0.117
133 | GAGGATCC | -0.0192
134 | GTCTCGTA | 0.456
135 | ACACATGC | -0.12
136 | CACGACGA | 0.126
137 | ATCCGTTC | 0.221
138 | AACGGTGA | 0.241
139 | AATACAAT | 0.0106
140 | CAAAACGA | 0.31
141 | ATGAGATC | 0.081
142 | CAAATTAA | -0.103
143 | AAGTGGAG | -0.194
144 | ACTCATAA | -0.0749
145 | CTCTAAAG | -0.225
146 | AGCTCATG | -0.159
147 | ACGCAACC | 0.132
148 | AAGGGCAC | -0.242
149 | GCATTGCA | -0.0224
150 | CGGAGTCC | -0.137

Row | Sequence | PBM E-score
151 | CGCGGCTA | 0.13
152 | ACCACCTA | -0.194
153 | CACTGAAC | 0.114
154 | ACGCGGTC | 0.0726
155 | ATCCCTAG | -0.0909
156 | CTGACGCC | -0.0727
157 | CTGCCCCC | -0.228
158 | AAAGGTAG | -0.16
159 | CCCACGAG | -0.341
160 | ACGTGGAG | 0.104
161 | AGACTGTC | -0.0995
162 | CCGGCTAC | -0.0283
163 | ATGCCCTA | -0.137
164 | CCTCTTCG | 0.0358
165 | CTTGCCTC | 0.0793
166 | GCGATGGA | -0.0225
167 | AGTATATA | 0.282
168 | CGCCCCAC | -0.0867
169 | AGCTTGCC | -0.0292
170 | AGGACTCC | -0.182
171 | AACGAGCC | 0.449
172 | CCACTAGA | -0.189
